# From ChEMBL document CHEMBL4888484, “Replenishing the malaria drug discovery pipeline: Screening and hit evaluation of the MMV Hit Generation Library 1 (HGL1) against asexual blood stage Plasmodium falciparum ,using a nano luciferase reporter read-out” (2022)
# Hit rate of the full screen: of about 150,000 compounds, about 540 (0.36%) showed an effect of 50% or more. The list shows a part of the results.
# Test system: Plasmodium falciparum
# Experiment: Primary screen in NF54 nanoGlo assay, in single point, at 2uM, 72h; a lower Z score goes with more inhibition
# Assay type: functional, Erythrocyte
# Details: timepoint 72 hour
Structure (SMILES),% Inhibition [%],Z score
COc1ccc(-c2n[nH]c(C3CCCCC3)n2)c(OC)c1,-6,0.77
CCn1ncc(C(=O)N2CCCC3c4nc[nH]c4CCC32)c1C (stereo not drawn),-4,0.73
CN1CCC(NC(=O)NC2CCCCC2Oc2ccccc2)C1=O (stereo not drawn),11,-1.37
COc1ccc(OC)c(N2CCN(C(=O)Nc3ccc(C)cc3)[C@@H](C)C2=O)c1,-4,0.5
Cc1n[nH]c(=O)c2c1cnn2-c1ccccc1,21,-2.61
O=C1CCC2(CCN(Cc3cncnc3)CC2)CN1[C@H]1CC[C@H](O)CC1,-5,1.03
CCn1nccc1C(=O)NCCc1noc(-c2cccnc2)n1,4,-0.48
Cc1ccc(-c2nc(-c3ccc(-c4noc(C5CCC5)n4)cc3)cs2)s1,-23,2.28
CN(C)C[C@H]1C[C@H](CO)CN(C(=O)c2ccccc2C(F)(F)F)C1,-2,0.31
NC(=O)c1ccccc1NC(=O)CN1CCO[C@H]2COCC[C@H]21,1,-0.18
CCc1ccc(C2CC(C)CCN2C(=O)Cn2cnnn2)o1 (stereo not drawn),-11,2.17
CCCCn1cc(C(=O)NCC(C)(C)c2ccccn2)c(C)n1,-6,0.8
O=C(CN1CCN(S(=O)(=O)c2ccc(Br)cc2)CC1)Nc1ccc2c(c1)OCO2,10,-1.19
CC(C)(C)OC(=O)c1cccc(CN)c1,7,-0.85
CS(=O)(=O)N(CCCN1CCOCC1)[C@H]1CCN(C(=O)c2cc(Cl)ccc2F)C1,5,-0.91
C[C@H](O)c1ccc(CCNS(=O)(=O)C2CC2)s1,6,-0.89
Cn1cccc1C(=O)N1CC(C)(CC(F)F)C1,1,-0.11
CN1CC[C@H](Cn2ccnc2-c2ccc(-c3ccccc3C#N)o2)C1,-22,2.55
Cc1cccc2ncc(C(=O)N[C@H](c3cnn(C)c3)C(C)C)n12,-4,0.56
Cc1cc(Cc2nc([C@H](C)n3cc(Br)cn3)no2)no1,-5,0.6
Cn1cc(S(=O)(=O)NC[C@]2(O)CCCc3occc32)cn1,-8,1.14

Structure (SMILES),% Inhibition [%],Z score
CCS(=O)(=O)NCCCNS(=O)(=O)c1ccc(C#N)cc1,-5,0.41
Cc1ccc(C)c(Cn2ccnc2CN(Cc2ccco2)C(=O)c2ccc(Cl)cc2)c1,-7,0.84
COCCn1cc(S(=O)(=O)Nc2cccnc2Nc2ccccc2)cn1,-18,2.42
Cc1cccc(NC(=O)CN2N=C(c3nc(-c4ccncc4)no3)CCC2=O)c1,4,-0.81
CC(C)NC(=O)[C@@H]1CCN(S(C)(=O)=O)c2ccccc2O1,-1,0.17
COc1cccc(CN2CCNC(=O)[C@@H]2CC(=O)NCCOc2cccnc2)c1OC,-9,1.13
CC(C)CNC(=O)N1CCCCC[C@H]1c1ccccc1Cl,-1,0.23
COCCN(CCC(=O)NCc1ccccc1)c1nc(-c2ccco2)nc2cc(Cl)ccc12,-4,0.44
COCCc1noc(C[C@H]2CCOC3(CCN(C(=O)C4CCC4)CC3)C2)n1,-8,1.08
CCn1cc([C@@H]2CS(=O)(=O)CCN2Cc2cc(C)on2)cn1,-8,1.36
CN(Cc1ccc2ccn(C)c2c1)C[C@H]1CCCCO1,-2,0.4
O=C(C1CCCC1)N1CC(CN2CCCCC2)C(c2cccc(C(F)(F)F)c2)C1 (stereo not drawn),-2,0.41
CC(NS(=O)(=O)CC1CCCCO1)c1nncn1C (stereo not drawn),1,-0.11
Cc1ccc(S(=O)(=O)N2CCN=C2N2CCCCC2)cc1C,-6,0.75
O=C(C1CCCCCC1)N1CCC(n2cc(-c3ccsc3)nn2)CC1,-27,2.45
O=C(c1cc(-c2ccccc2)c(N2CCCCCC2)s1)N1CCCCC1,-12,1.49
COc1cccc([C@H]2CN(C(=O)c3c(-c4ccccc4)noc3C)C[C@@H]2N)c1,-6,0.99
Cc1occc1C(=O)N1CCc2[nH]c(-c3cn[nH]c3)nc2C1,-1,0.14
Cc1nn(-c2ccc(Cl)c(Cl)c2)c(NC(=O)N2CCC(CO)CC2)c1C,-2,0.35
C[C@H](OC1CCCCCC1)C(=O)NC1(C#N)CCOCC1,-2,0.24
COCCN(C)CC(=O)Nc1nccn1C,0,-0.04

Structure (SMILES),% Inhibition [%],Z score
Cc1cc(OCC(=O)Nc2ccc(Cl)cc2)nc2c1c(-c1ccccc1)nn2-c1ccccc1,-2,0.33
O=S(=O)(c1cc(Cl)c(Cl)s1)N1[C@H]2CCNC[C@@H]1CC2,-4,0.68
O=C(N[C@@H](Cc1ccccc1)C(=O)N1CCC2(CC1)NCCc1[nH]cnc12)c1cccc(Br)c1,7,-0.91
COc1cc2c(cc1OC)CN(C(=O)c1cccc3[nH]ccc13)CC2,-13,1.64
CC(C)(C)[C@H](NCC(=O)NC1(C#N)CCCC1)c1cccs1,3,-0.61
CN(Cc1ccoc1)C(=O)[C@@H]1[C@H]2[C@@H]3CC[C@@H](C3)[C@@H]12,-9,0.87
O=C(NCc1cccc(Cl)c1Cl)N1C[C@H](O)[C@@H](N2CCCC2)C1,6,-1.21
Nc1ncnc2c1ncn2CC(=O)NC1CCC2(CCCCC2)CC1,16,-1.92
Cc1ccc(-c2ccc3c(c2)C=C(C(=O)Nc2ccc(F)cc2)CO3)cc1,-9,0.95
CCOCCCC(=O)Nc1c[nH]nc1C(F)(F)F,-5,0.54
COc1ccc(OC)c(S(=O)(=O)N2CC(N(C3CCOCC3)S(C)(=O)=O)C2)c1,-14,2.57
C=CCn1cc(CN(C)CCc2cnn(C)c2)cn1,-21,3.02
CCCN1CC[C@H](CNc2nnc(C3CC3)s2)C1,-12,1.03
CC[C@@H](CC#N)NC(=O)c1c[nH]c2cc(Cl)c(OC)cc12,17,-2.21
CC(C)CN1CC(=O)N[C@@H]1c1nc2ccc(F)cc2s1,4,-0.61
C[C@@H](C(=O)N1CCOCC1)S(=O)(=O)c1cc(F)ccc1F,4,-0.63
COc1ccc(C(=O)N[C@@H](Cc2ccccc2)c2ccccc2)cc1Oc1nc(Cc2ccc(F)cc2)ns1,-7,0.77
CC(=O)c1cc(Br)ccc1NCC(=O)N(C)CCC#N,-26,2.93
CCOc1ccccc1/N=C(\NCCc1c(C)nn(C)c1C)NC(=O)c1ccc(F)cc1,-4,0.76
CC(NC(=O)C1CCC(=O)N1)c1ccc(Oc2ccccc2)cc1 (stereo not drawn),-10,0.96
FC(F)(F)c1ccc2sc(N3CCc4cncnc4C3)nc2c1,-17,1.72

Structure (SMILES),% Inhibition [%],Z score
CCn1cnc2c(N(C)C[C@H](O)c3cccnc3)ncnc21,-3,0.42
Cc1ccc(S(=O)(=O)Cc2nnn(C)n2)cc1,-5,0.51
CCCCNC(=O)N1CC[C@H](c2ccn[nH]2)C1,-16,1.68
CCCc1noc(C(C)NC2CCN(S(C)(=O)=O)CC2CC)n1 (stereo not drawn),-1,0.13
O=C(CN1CCC2(CC1)NC(=O)N(Cc1ccc(Cl)cc1)C2=O)Nc1ccc(F)cc1F,30,-0.84
C[C@@H](c1cccc(O)c1)N1C(=O)NC(CC(F)(F)F)C1=O (stereo partly drawn),-10,1.48
CCN1CCN(C(=O)CCc2nnc3ccc(N4CCOCC4)nn23)CC1,-19,1.86
CCC(NC1CC(C)(c2ccccc2)C1)C1CCCO1 (stereo not drawn),-6,0.66
Cc1cccc(Cl)c1NC(=O)N(C)CCN(C)C,-9,1.39
COc1ccc(C(=O)N2c3cc(C)ccc3[C@](C)(c3ccccc3)CC2(C)C)cc1,-8,1.04
Cc1ccc(C(=O)NC2(c3nnc4n3CCCC4)CCC2)c(Cl)c1,9,-1.02
O=C(Cc1c[nH]c2ccccc12)Nc1ccn(CCc2ccncc2)n1,-4,0.51
O=C1NC2=Nc3ccccc3NC(c3ccccc3)=C2[C@H](c2ccc(O)cc2)N1,-8,1.1
Cc1nccc(O[C@H]2CCCN(S(C)(=O)=O)C2)n1,0,0.09
CN1C(=O)C2(CCN(C(=O)CN3C(=O)OC(C)(C)C3=O)CC2)c2ccccc21,-7,0.88
c1ccc(-c2nc3cnccn3c2Nc2ccc3c(c2)OCCO3)cc1,-21,3.09
COc1ccc(CC(=O)Nc2csc3nc(=O)c(C)nn23)cc1OC,-4,0.34
O=S(=O)(Nc1ccc(Cl)c(Cl)c1)N1CCCCCC1,-3,0.5
N#CCCN(Cc1ccco1)C(=O)Cn1cc(C(F)(F)F)ccc1=O,-9,1.44
O=C1CN(c2ccc(NC(=O)NCc3ccco3)cn2)CCN1,8,-1.03
O=C(COc1ccccc1Br)N(C1CCCC1)[C@H]1CCS(=O)(=O)C1,-8,1.57
